Assay results: the supplement of paper PMC8728848
This is one part of the list.

Key:
Test in all cases: glycan array binding signal (z-score within array); higher = stronger binding
Conditions in all cases: glycan notation: IUPAC condensed, linker removed
[1] = molecular target: Neu5Ac(a2-3)Gal(b1-3)GlcNAc(b1-2)Man(a1-3)[GlcNAc(b1-4)][Neu5Ac(a2-3)Gal(b1-3)GlcNAc(b1-2)Man(a1-6)]Man(b1-4)GlcNAc(b1-4)GlcNAc
Summary of the method: (§1)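 Negative Z-scores can be read as non-binding. The Z-score is calculated within each array and then averaged across arrays of one protein sequence at different concentrations or buffers and across linkers. Arrays, 3228 in all, were curated from the Consortium for Functional Glycomics database and kept only where the protein sequence was available.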

[2] = molecular target: Neu5Ac(a2-3)Gal(b1-3)GlcNAc(b1-2)Man(a1-3)[Neu5Ac(a2-3)Gal(b1-3)GlcNAc(b1-2)Man(a1-6)]Man(b1-4)GlcNAc(b1-4)GlcNAc
Summary of the method: as §1

[3] = molecular target: Neu5Ac(a2-3)Gal(b1-3)GlcNAc(b1-3)Gal(b1-3)GlcNAc
Summary of the method: as §1

[4] = molecular target: Neu5Ac(a2-3)Gal(b1-3)GlcNAc(b1-3)Gal(b1-4)GlcNAc
Summary of the method: as §1

[5] = molecular target: Neu5Ac(a2-3)Gal(b1-3)GlcNAc(b1-3)GalNAc
Summary of the method: as §1

[6] = molecular target: Neu5Ac(a2-3)Gal(b1-3)GlcNAc(b1-4)Gal(b1-4)Glc
Summary of the method: as §1

[7] = molecular target: Neu5Ac(a2-3)Gal(b1-3)GlcNAc(b1-6)GalNAc
Summary of the method: as §1

[8] = molecular target: Neu5Ac(a2-3)Gal(b1-3)GlcNAc6S
Summary of the method: as §1

[9] = molecular target: Neu5Ac(a2-3)Gal(b1-3)[Fuc(a1-4)]GlcNAc
Summary of the method: as §1

[10] = molecular target: Neu5Ac(a2-3)Gal(b1-3)[Fuc(a1-4)]GlcNAc(b1-3)Gal(b1-3)[Fuc(a1-4)]GlcNAc
Summary of the method: as §1

[11] = molecular target: Neu5Ac(a2-3)Gal(b1-3)[Fuc(a1-4)]GlcNAc(b1-3)Gal(b1-4)[Fuc(a1-3)]GlcNAc
Summary of the method: as §1

[12] = molecular target: Neu5Ac(a2-3)Gal(b1-3)[GlcNAc(b1-6)]GalNAc
Summary of the method: as §1

[13] = molecular target: Neu5Ac(a2-3)Gal(b1-3)[Neu5Ac(a2-6)]GalNAc
Summary of the method: as §1

[14] = molecular target: Neu5Ac(a2-3)Gal(b1-3)[Neu5Ac(a2-6)]GlcNAc(b1-3)[Fuc(a1-3)[Gal(b1-4)]GlcNAc(b1-6)]Gal(b1-4)Glc
Summary of the method: as §1

[15] = molecular target: Neu5Ac(a2-3)Gal(b1-3)]Neu5Ac(a2-3)Gal(b1-4)]GlcNAc
Summary of the method: as §1

Neu5Ac(a2-3)Gal(b1-4)Glc = molecular target: Neu5Ac(a2-3)Gal(b1-4)Glc
Summary of the method: as §1

[16] = molecular target: Neu5Ac(a2-3)Gal(b1-4)GlcNAc
Summary of the method: as §1

[17] = molecular target: Neu5Ac(a2-3)Gal(b1-4)GlcNAc(b1-2)Man
Summary of the method: as §1

[18] = molecular target: Neu5Ac(a2-3)Gal(b1-4)GlcNAc(b1-2)Man(a1-3)[GlcNAc(b1-4)][Neu5Ac(a2-3)Gal(b1-4)GlcNAc(b1-2)Man(a1-6)]Man(b1-4)GlcNAc(b1-4)GlcNAc
Summary of the method: as §1

[19] = molecular target: Neu5Ac(a2-3)Gal(b1-4)GlcNAc(b1-2)Man(a1-3)[Neu5Ac(a2-3)Gal(b1-4)GlcNAc(b1-2)Man(a1-6)]Man(b1-4)GlcNAc(b1-4)GlcNAc
Summary of the method: as §1

[20] = molecular target: Neu5Ac(a2-3)Gal(b1-4)GlcNAc(b1-2)Man(a1-3)[Neu5Ac(a2-3)Gal(b1-4)GlcNAc(b1-2)Man(a1-6)]Man(b1-4)GlcNAc(b1-4)[Fuc(a1-6)]GlcNAc
Summary of the method: as §1

[21] = molecular target: Neu5Ac(a2-3)Gal(b1-4)GlcNAc(b1-2)Man(a1-3)[Neu5Ac(a2-6)Gal(b1-4)GlcNAc(b1-2)Man(a1-6)]Man(b1-4)GlcNAc(b1-4)GlcNAc
Summary of the method: as §1

[22] = molecular target: Neu5Ac(a2-3)Gal(b1-4)GlcNAc(b1-2)[Neu5Ac(a2-3)Gal(b1-4)GlcNAc(b1-4)]Man(a1-3)[GlcNAc(b1-4)][Neu5Ac(a2-3)Gal(b1-4)GlcNAc(b1-2)[Neu5Ac(a2-3)Gal(b1-4)GlcNAc(b1-6)]Man(a1-6)]Man(b1-4)GlcNAc(b1-4)GlcNAc
Summary of the method: as §1

[23] = molecular target: Neu5Ac(a2-3)Gal(b1-4)GlcNAc(b1-2)[Neu5Ac(a2-3)Gal(b1-4)GlcNAc(b1-4)]Man(a1-3)[GlcNAc(b1-4)][Neu5Ac(a2-3)Gal(b1-4)GlcNAc(b1-4)Man(a1-6)]Man(b1-4)GlcNAc(b1-4)GlcNAc
Summary of the method: as §1

[24] = molecular target: Neu5Ac(a2-3)Gal(b1-4)GlcNAc(b1-2)[Neu5Ac(a2-3)Gal(b1-4)GlcNAc(b1-6)]Man(a1-6)[Neu5Ac(a2-3)Gal(b1-4)GlcNAc(b1-2)Man(a1-3)]Man(b1-4)GlcNAc(b1-4)GlcNAc
Summary of the method: as §1

[25] = molecular target: Neu5Ac(a2-3)Gal(b1-4)GlcNAc(b1-2)[Neu5Ac(a2-3)Gal(b1-4)GlcNAc(b1-6)]Man(a1-6)[Neu5Ac(a2-3)Gal(b1-4)GlcNAc(b1-2)Man(a1-3)][GlcNAc(b1-4)]Man(b1-4)GlcNAc(b1-4)GlcNAc
Summary of the method: as §1

[26] = molecular target: Neu5Ac(a2-3)Gal(b1-4)GlcNAc(b1-3)Gal
Summary of the method: as §1

[27] = molecular target: Neu5Ac(a2-3)Gal(b1-4)GlcNAc(b1-3)Gal(b1-3)GlcNAc
Summary of the method: as §1

[28] = molecular target: Neu5Ac(a2-3)Gal(b1-4)GlcNAc(b1-3)Gal(b1-4)GlcNAc
Summary of the method: as §1

[29] = molecular target: Neu5Ac(a2-3)Gal(b1-4)GlcNAc(b1-3)Gal(b1-4)GlcNAc(b1-2)Man(a1-3)[Neu5Ac(a2-3)Gal(b1-4)GlcNAc(b1-3)Gal(b1-4)GlcNAc(b1-2)Man(a1-6)]Man(b1-4)GlcNAc(b1-4)GlcNAc
Summary of the method: as §1

[30] = molecular target: Neu5Ac(a2-3)Gal(b1-4)GlcNAc(b1-3)Gal(b1-4)GlcNAc(b1-3)Gal(b1-4)GlcNAc
Summary of the method: as §1

[31] = molecular target: Neu5Ac(a2-3)Gal(b1-4)GlcNAc(b1-3)Gal(b1-4)GlcNAc(b1-3)Gal(b1-4)GlcNAc(b1-2)Man(a1-3)[Neu5Ac(a2-3)Gal(b1-4)GlcNAc(b1-3)Gal(b1-4)GlcNAc(b1-3)Gal(b1-4)GlcNAc(b1-2)Man(a1-6)]GalNAc
Summary of the method: as §1

[32] = molecular target: Neu5Ac(a2-3)Gal(b1-4)GlcNAc(b1-3)Gal(b1-4)GlcNAc(b1-3)GalNAc
Summary of the method: as §1

[33] = molecular target: Neu5Ac(a2-3)Gal(b1-4)GlcNAc(b1-3)Gal(b1-4)GlcNAc(b1-3)[Neu5Ac(a2-3)Gal(b1-4)GlcNAc(b1-3)Gal(b1-4)GlcNAc(b1-6)]GalNAc
Summary of the method: as §1

[34] = molecular target: Neu5Ac(a2-3)Gal(b1-4)GlcNAc(b1-3)Gal(b1-4)GlcNAc(b1-6)[Gal(b1-3)]GalNAc
Summary of the method: as §1

[35] = molecular target: Neu5Ac(a2-3)Gal(b1-4)GlcNAc(b1-3)Gal(b1-4)[Fuc(a1-3)]GlcNAc
Summary of the method: as §1

[36] = molecular target: Neu5Ac(a2-3)Gal(b1-4)GlcNAc(b1-3)GalNAc
Summary of the method: as §1

[37] = molecular target: Neu5Ac(a2-3)Gal(b1-4)GlcNAc(b1-3)[Neu5Ac(a2-3)Gal(b1-4)GlcNAc(b1-6)]GalNAc
Summary of the method: as §1

B1: SP16663B-bot-321-25-321 (Bacteroides ovatus) (protein)
chain: DDDDEVTMNSKFYLSTKVFPVDSYEASLSVILKDNSVVVNELQPNYRFVACATERLSKDVKITADSDDNLVSAYNKANDTEYNILPAENYSFTNKTVTIENGESVSGDSIKIELLNVGSLTTEGGYLLPVTISSIEGNNLDALSSNRGVVYLKIQNIHVNVESGQPAEGTLIADRSGWTVKVAPTTRGDAKNLIDGTNSDVARDGGAEYWLTVDIGKVQTLTGIRNKCYASSYSPTAVEVFTSSDGAKWKSIGAVTISKSGTQYIKFSKAVETRYLKYYVKQGPNTVSLTEFDLYAK
glycan array binding signal (z-score) [1]: -0.319
glycan array binding signal (z-score) [2]: -0.185
glycan array binding signal (z-score) [3]: 0.016
glycan array binding signal (z-score) [4]: -0.225
glycan array binding signal (z-score) [5]: -0.284
glycan array binding signal (z-score) [6]: 0.073
glycan array binding signal (z-score) [7]: -0.885
glycan array binding signal (z-score) [8]: -0.178
glycan array binding signal (z-score) [9]: -0.272
glycan array binding signal (z-score) [10]: -0.351
glycan array binding signal (z-score) [11]: -0.039
glycan array binding signal (z-score) [12]: -0.154
glycan array binding signal (z-score) [13]: -0.601
glycan array binding signal (z-score) [14]: 0.435
glycan array binding signal (z-score) [15]: -0.445
glycan array binding signal (z-score) (Neu5Ac(a2-3)Gal(b1-4)Glc): 0.578
glycan array binding signal (z-score) [16]: -0.322
glycan array binding signal (z-score) [17]: -0.489
glycan array binding signal (z-score) [18]: 0.033
glycan array binding signal (z-score) [19]: 0.131
glycan array binding signal (z-score) [20]: 0.957
glycan array binding signal (z-score) [21]: -0.138
glycan array binding signal (z-score) [22]: -0.092
glycan array binding signal (z-score) [23]: -0.146
glycan array binding signal (z-score) [24]: -0.278
glycan array binding signal (z-score) [25]: 0.354
glycan array binding signal (z-score) [26]: -0.206
glycan array binding signal (z-score) [27]: 0.08
glycan array binding signal (z-score) [28]: -0.56
glycan array binding signal (z-score) [29]: -0.099
glycan array binding signal (z-score) [30]: 0.857
glycan array binding signal (z-score) [31]: 0.632
glycan array binding signal (z-score) [32]: -0.725
glycan array binding signal (z-score) [33]: -0.217
glycan array binding signal (z-score) [34]: -0.132
glycan array binding signal (z-score) [35]: 0.326
glycan array binding signal (z-score) [36]: 0.44
glycan array binding signal (z-score) [37]: -0.81
